Source: PubChem BioAssay AID1347165 (National Center for Advancing Translational Sciences (NCATS), 2019)
The campaign covered roughly 220,000 compounds. About 5,700 (2.6%) were called active. This list was built around the results that the source calls inconclusive (neither active nor inactive); the mix of calls is not that of the screen. Calls come from the whole dose curve; as a rule, active = well fitted inhibition curve with a large enough effect; inconclusive = small, poorly fitted or top-dose-only effect; inactive = no such curve, though single readings can be large or run the other way. Potencies of inconclusive entries are doubtful fits and often do not repeat.

target: Lysine-specific demethylase 5B (Homo sapiens) (UniProt Q9UGL1); assay: Primary screen for KDM5B Histone Demethylases FDH-coupled qHTS; conditions: FDH-coupled NADH fluorescence (FDH is formaldehyde dehydrogenase); activity change, negative = inhibition: at 57.7 µM (top of the series) unless noted; note: nearly all actives have a fitted effect of over 70% in size; for activity change, negative = inhibition: 0% is about no effect
Summary of the method: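 Coupled FDH/NAD⁺ fluorescence readout. KDM5BΔAP 200 nM final; compound titration, 10 min RT preincubation; substrate mix 12.5 µM H3K4me3, 25 µM 2-OG, 50 µM Fe(II), 100 µM ascorbate, 0.25 mM NAD⁺, 0.25 U/mL FDH; ΔRFU over 30 min.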
Potency is the fitted concentration of half-maximal effect; tags give direction and shape of the fitted curve.

UniProt Q9UGL1, sequence (Q9UGL1 whole entry, looked up): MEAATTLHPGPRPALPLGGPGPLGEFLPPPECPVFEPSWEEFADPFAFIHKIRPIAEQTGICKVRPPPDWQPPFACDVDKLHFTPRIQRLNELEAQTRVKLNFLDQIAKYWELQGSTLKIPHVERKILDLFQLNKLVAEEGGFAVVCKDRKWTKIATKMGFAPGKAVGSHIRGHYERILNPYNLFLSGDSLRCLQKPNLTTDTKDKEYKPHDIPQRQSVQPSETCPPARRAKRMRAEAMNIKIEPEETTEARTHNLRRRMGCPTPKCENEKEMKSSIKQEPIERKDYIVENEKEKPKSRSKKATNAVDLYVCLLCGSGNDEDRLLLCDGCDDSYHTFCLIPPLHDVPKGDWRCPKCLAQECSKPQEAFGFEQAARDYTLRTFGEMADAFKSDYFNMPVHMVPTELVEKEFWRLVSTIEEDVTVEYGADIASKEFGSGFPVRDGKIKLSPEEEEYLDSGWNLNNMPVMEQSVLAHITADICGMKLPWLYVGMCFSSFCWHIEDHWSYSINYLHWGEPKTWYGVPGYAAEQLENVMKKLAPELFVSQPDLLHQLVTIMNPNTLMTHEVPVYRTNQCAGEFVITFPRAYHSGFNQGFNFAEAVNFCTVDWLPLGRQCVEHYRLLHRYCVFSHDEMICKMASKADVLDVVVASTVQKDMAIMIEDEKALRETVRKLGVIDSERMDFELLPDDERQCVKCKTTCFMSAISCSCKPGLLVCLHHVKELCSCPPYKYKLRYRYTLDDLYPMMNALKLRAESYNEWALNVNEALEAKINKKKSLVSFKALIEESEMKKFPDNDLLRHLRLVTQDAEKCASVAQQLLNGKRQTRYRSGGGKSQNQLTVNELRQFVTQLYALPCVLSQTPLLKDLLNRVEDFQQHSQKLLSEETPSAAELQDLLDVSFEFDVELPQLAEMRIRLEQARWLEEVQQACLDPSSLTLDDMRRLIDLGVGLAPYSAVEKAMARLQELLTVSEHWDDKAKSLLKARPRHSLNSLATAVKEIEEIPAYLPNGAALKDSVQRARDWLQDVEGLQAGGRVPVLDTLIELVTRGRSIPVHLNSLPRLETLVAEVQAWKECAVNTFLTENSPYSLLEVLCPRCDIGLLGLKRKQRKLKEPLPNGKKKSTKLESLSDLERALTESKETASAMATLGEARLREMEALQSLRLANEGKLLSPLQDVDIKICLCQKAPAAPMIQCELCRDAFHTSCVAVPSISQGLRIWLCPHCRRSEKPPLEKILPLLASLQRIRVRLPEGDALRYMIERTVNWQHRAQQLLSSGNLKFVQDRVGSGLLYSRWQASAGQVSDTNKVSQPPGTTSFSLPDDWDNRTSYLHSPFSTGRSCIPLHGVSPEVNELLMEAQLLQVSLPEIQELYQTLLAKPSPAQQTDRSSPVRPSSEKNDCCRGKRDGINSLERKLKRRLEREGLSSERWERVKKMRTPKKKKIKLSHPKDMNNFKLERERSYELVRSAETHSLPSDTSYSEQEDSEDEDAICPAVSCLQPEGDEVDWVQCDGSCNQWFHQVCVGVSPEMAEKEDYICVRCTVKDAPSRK

Compound	Potency	activity change, negative = inhibition
CCS[C@H]1CCN2C(=O)c3cc(-c4ccc(F)cc4F)ccc3NC(=O)[C@H]12	inconclusive: 56.2 µM [inhibitor, single point]	–
CCOC(=O)N1CCC(NC(=O)c2ccc3c(c2)N(Cc2ccccc2)C(=O)c2ccccc2S3(=O)=O)CC1	–	inconclusive: -30.2% [inhibitor]
COc1ccc(C2c3c(n(C)c4ccccc34)C(=O)N2CC(=O)Nc2c(C)cc(C)cc2C)cc1 (stereo unspecified)	inconclusive: 39.8 µM [inhibitor, single point]	–
O=C(c1ccccc1F)N1CCC2(CC1)N=C(c1ccc(Cl)cc1)NO2	inconclusive: 28.2 µM [inhibitor, partial curve, poor fit]	–
CC(C)Cn1cc(NC(=O)NCc2ccc(Cl)cc2)c2ccccc2c1=O	inconclusive: 28.2 µM [inhibitor, partial curve, poor fit]	–
COc1ccc(Cl)cc1NC(=O)c1ccc(CN2C(=O)CCn3nc(C)cc32)cc1	inconclusive: 25.1 µM [inhibitor, single point]	–
CN1CCN(c2ccc3ncc(Nc4ccc5c(c4)OCCO5)n3n2)CC1	inactive	–
CN(C(=O)CSc1nnc(-c2cccnc2)o1)C1(c2ccccc2Cl)CCCCC1=O (stereo unspecified)	inactive	–
CC(C)Oc1ccc(CNC(=O)c2cc3cccc4c3n2CC(C)S4)cc1 (stereo unspecified)	inconclusive: 35.5 µM [inhibitor, partial curve, poor fit]	–
O=C1NCC2(CCCN(C(=O)CCc3nc4ccccc4[nH]c3=O)C2)O1 (stereo unspecified)	active: 22.4 µM	–
CN(C)c1cccc(-c2cnc(NC(=O)C3(c4ccccc4)CC3)c3c2CCO3)c1	inconclusive: 44.7 µM [inhibitor, partial curve, poor fit]	–
NC(=O)c1ccc(COC(=O)c2cc3ccccc3[nH]2)cc1	inconclusive: 28.2 µM [inhibitor, single point]	–
Cc1ccc(-c2onc(C)c2C)cc1S(=O)(=O)N1CCC(C)CC1	inconclusive: 15.8 µM [inhibitor, partial curve, poor fit]	–
N#C/C(=C\c1ccco1)C(=O)NC1CCCC1	inactive	–
COCCCNC(=O)C(=O)NN	inactive	–
Cc1ccc(Cn2c(C(=O)Nc3ccc(Cl)cc3)cc3sccc32)cc1	inconclusive: 31.6 µM [inhibitor, partial curve, poor fit]	–
O=C1NCCCCCCN(Cc2ccncc2)[C@@H]2CN(Cc3ccccn3)CC[C@H]12	inconclusive: 17.8 µM [inhibitor, partial curve, poor fit]	–
CCOc1ccc(-c2cc3c(=O)n(CCNC(=O)C4(c5ccccc5)CC4)ccn3n2)cc1	inconclusive: 10 µM [inhibitor, partial curve, poor fit]	–
O=S(=O)(c1ccccc1)c1cnc2cc3c(cc2c1N1CCN(c2ccccc2)CC1)OCCO3	inactive	–
Fc1ccc(-c2nnc3ccc(NCCc4ccccn4)nn23)nc1	active: 39.8 µM	–
O=C(O)C[C@@H]1CCN(C(=O)c2ccccc2)C[C@@H]1CC1=NCCc2cc(F)ccc21	inconclusive: 28.2 µM [inhibitor, single point]	–
NC(=O)c1ccc(NC(=O)Cn2c(=O)n(-c3ccccc3)c(=O)c3oc4ccccc4c32)cc1	inconclusive: 28.2 µM [inhibitor, single point]	–

Compound	Potency	activity change, negative = inhibition
O=c1ncn(CC2CC2)c2ccc(N3CCC(c4ccccc4)CC3)nc12	inconclusive: 31.6 µM [inhibitor, partial curve, poor fit]	–
CCC(=O)N1CCC(Cc2noc(-c3ccccc3)n2)C1 (stereo unspecified)	inactive	–
O=C(CN1C(=O)COc2ccc(S(=O)(=O)N3CCOCC3)cc21)NCc1ccc(Cl)cc1	–	inconclusive: -32.6% [inhibitor]
NC(=O)c1nsc(C(=O)N(c2ccccc2)C(C(=O)NC2CCCC2)c2cccs2)c1N (stereo unspecified)	inconclusive: 8.91 µM [inhibitor, full curve, poor fit]	–
COc1ccccc1N1CCN(C(=O)C[C@@H]2O[C@H](CNC(=O)NC(C)C)[C@@H](O)[C@H]2O)CC1	inactive	–
CCCc1oc2ccc(NS(=O)(=O)c3ccc(OCC)cc3)cc2c1C(=O)OCC	inconclusive: 35.5 µM [inhibitor, single point]	–
CC1(C)Cc2nc(-c3ccccc3)nc(SCC(=O)N3CCCC3)c2CO1	inconclusive: 25.1 µM [inhibitor, partial curve, poor fit]	–
Cc1ccc(-c2nc3cnccn3c2NCCC(=O)NCc2ccco2)cc1	active: 28.2 µM	–
C/C=C(\C)C(=O)O[C@@H]1Cc2c(ccc3ccc(=O)oc23)OC1(C)C	inconclusive: 28.2 µM [inhibitor, partial curve, poor fit]	–
CSc1ncc(C(=O)NCc2ccc(F)cc2)c(-c2ccccc2)n1	inactive	–
C/C(=N/O)C(C)N(O)C(C)/C(C)=N/O (stereo unspecified)	inactive	–
COc1ccc2c(c1)c1c(c(=O)n(CCc3ccccc3)c(=O)n1Cc1cccc(C)c1)n2C	inconclusive: 28.2 µM [inhibitor, partial curve, poor fit]	–
Cc1ccc(-c2nc(C#N)c(NCC(C)C)o2)cc1	inconclusive: 1.78 µM [inhibitor, partial curve, poor fit]	–
Clc1ccc(-c2cnc([C@@H]3COCCN3Cc3ccccc3)[nH]2)s1	inconclusive: 35.5 µM [inhibitor, partial curve, poor fit]	–
COc1ccc(Nc2ncnc3c2cnn3-c2cc(Cl)ccc2C)cc1OC	inconclusive: 31.6 µM [inhibitor, single point]	–
COc1ccc(-c2cc(N3CCC(NC(=O)CCc4ccccc4OC)CC3)n[nH]2)cc1	inactive	–
NC(=O)c1cc(Cc2ccccc2)sc1NC(=O)c1cccnc1	inconclusive: 28.2 µM [inhibitor, partial curve, poor fit]	–
C[S+](=O)([O-])N1CC2(CCN(Cc3ccccn3)CC2)Cc2ccccc21	inactive	–
COc1ccccc1CNC(=O)c1ccc(-c2nc(CS(=O)c3ccc(C)cc3)c(C)o2)cc1 (stereo unspecified)	inconclusive: 39.8 µM [inhibitor, single point]	–
CCOc1ccccc1-c1noc(-c2nc(C)no2)n1	inconclusive: 39.8 µM [inhibitor, partial curve, poor fit]	–
COc1ccc(-c2[nH]ncc2CNC(=O)C2CC3(CCNCC3)CN2)cc1 (stereo unspecified)	inconclusive: 14.1 µM [inhibitor, partial curve]	–
COc1ccc(CCN[C@H]2CS(=O)(=O)C[C@@H]2S(=O)(=O)c2ccc(C)cc2)cc1OC	inactive	–

Compound	Potency	activity change, negative = inhibition
O=C(N/N=C/c1cccc(Oc2ccccc2)c1)c1cccs1	inconclusive: 39.8 µM [inhibitor, single point]	–
CCCCn1c(=O)c2oc3ccccc3c2n(Cc2ccc(OC)cc2)c1=O	–	inconclusive: -31.8% [inhibitor]
O=C(Cc1cccs1)NC(C(=O)Nc1ccc2c(c1)OCO2)c1ccccc1 (stereo unspecified)	inactive	–
CC(C)CCNc1nc(-c2ccc(S(C)(=O)=O)cc2)cs1	inconclusive: 20 µM [inhibitor, partial curve, poor fit]	–
CC1CC(=O)Nc2ccccc2N1C(=O)Cn1cnc2c(Cl)cc(Cl)cc2c1=O (stereo unspecified)	inactive	–
O=C(O)CC1(CC(=O)NCc2csc(-c3cccs3)n2)CCCCC1	inconclusive: 39.8 µM [inhibitor, single point]	–
COc1cc2ccccc2nn1	inconclusive: 39.8 µM [inhibitor, partial curve, poor fit]	–
COc1ccc(NC(=O)C2CCN(S(=O)(=O)c3cn(C)cn3)CC2)cc1Cl	–	inconclusive: -30.3% [inhibitor]
CN1CC(=O)N(C2CCCNC2)Cc2c1ncnc2N1CCC(N)CC1 (stereo unspecified)	inconclusive: 44.7 µM [inhibitor, partial curve]	–
CCC(C)Cc1c(C)sc2nc(CNc3ccc(NC(C)=O)c(Cl)c3)[nH]c(=O)c12 (stereo unspecified)	inconclusive: 20 µM [inhibitor, partial curve, poor fit]	–
COC(=O)CNC(=O)c1cc(-c2cccs2)nc2ccccc12	inactive	–
CONC(=O)c1ccc(C(=O)OC)cc1	inconclusive: 39.8 µM [inhibitor, single point]	–
CCc1ccc(CN(Cc2ccco2)C(=O)COc2ccccc2Cl)cc1	inconclusive: 1.41 µM [inhibitor, full curve, poor fit]	–
COCCNC(=O)COC(=O)c1cc(-c2ccc(Cl)s2)nc2ccccc12	inconclusive: 2 µM [inhibitor, full curve, poor fit]	–
Cc1cccc(-n2c(=O)c3c(c4cc(C)ccc4n3C)n(C)c2=O)c1	inconclusive: 3.55 µM [inhibitor, full curve, poor fit]	–
Cc1ccc2nc([C@H]3CCN(C(C)C)C3)[nH]c2c1	inconclusive: 31.6 µM [inhibitor, partial curve, poor fit]	–
CCCOc1nccnc1NC1CCN(C(=O)NCc2ccco2)CC1	active: 25.1 µM	–
CN(c1ncnc2c1c(-c1ccccc1)cn2-c1cccc(Cl)c1)C1CCCCC1	inconclusive: 25.1 µM [inhibitor, partial curve, poor fit]	–
COc1ccc(C(=O)OCc2ccccc2F)c(OC)c1OC	inactive	–
CCc1nc(-c2c3n(c(=O)n(Cc4cccc(Br)c4)c2=O)CCCC3)no1	inactive	–
COCCN(Cc1ccco1)C(=O)Cn1ncc2c([nH]c3ccccc32)c1=O	inconclusive: 15.8 µM [inhibitor, partial curve, poor fit]	–
Cc1ccc(CNc2oc(-c3ccc(S(=O)(=O)N(C)C)cc3)nc2C#N)cc1	inactive	–
